Test results published in ChEMBL document CHEMBL4888484, “Replenishing the malaria drug discovery pipeline: Screening and hit evaluation of the MMV Hit Generation Library 1 (HGL1) against asexual blood stage Plasmodium falciparum ,using a nano luciferase reporter read-out” (2022).
In all, about 150,000 compounds went through this assay and about 540 (0.36%) showed an effect of 50% or more. The list shows a part of the results.

What follows are molecules tested on Plasmodium falciparum (assay: Primary screen in NF54 nanoGlo assay, in single point, at 2uM, 72h; a lower Z score goes with more inhibition). Conditions: timepoint 72 hour.
Format: functional, Erythrocyte

Row | SMILES | % Inhibition | Z score
1 | Nc1ncc(Cl)cc1S(=O)(=O)Nc1ccn(CC(F)F)n1 | 5% | -0.69
2 | CC(C)(C)c1noc(OCCCCC#N)n1 | -5% | 0.76
3 | CC1=NN(c2ccccc2)C(=O)C12Cc1cc(C(F)(F)F)ccc1N1CCOCC12 (stereo not drawn) | 6% | -0.89
4 | CC[C@@H](COC)NC(=O)c1cc(-c2ccc(C3CCCCC3)cc2)on1 | 1% | -0.18
5 | CCN1CCN(c2nnc(-n3cccc3CN3CCN(c4ccc(OC)cc4)CC3)s2)CC1 | -6% | 1.09
6 | CCCCc1nc(-c2nccn2Cc2ccoc2)c[nH]1 | 5% | -0.67
7 | Cc1ccc(NS(=O)(=O)c2c(C)[nH]c(C)c2-c2nc(C3CC3)no2)c(F)c1 | -10% | 1.87
8 | Cc1nc(CC2CC2)sc1C(=O)N1CCN(C)Cc2ccccc21 | -4% | 0.59
9 | O=C1CC[C@@]2(CCCN(c3ccccn3)C2)CN1CCc1c[nH]cn1 | -8% | 1.14
10 | CC(=O)N(CC(=O)N1CCN(c2ccc(-c3ccc(Cl)cc3Cl)nn2)CC1)C1CC1 | -1% | 0.16
11 | COC(=O)c1cc(NS(=O)(=O)N2CCCCC2)nn1C | -9% | 1.65
12 | O=C(Nc1ccc(F)cc1F)c1nnc(CNS(=O)(=O)Cc2ccccc2)s1 | -10% | 1.62
13 | Cn1c(=O)c2ccn(CC(=O)N3CCN(c4ccccc4F)CC3)c2n(C)c1=O | -11% | 1.14
14 | Cc1cc(CNC(=O)N2CCC(S(N)(=O)=O)CC2)ccc1-c1ccccc1 | -1% | 0.13
15 | CCc1ccc(C(=O)CCC(=O)Nc2ncccc2O)cc1 | -8% | 1.22
16 | C[C@@H]1CN(C[C@@H]2CN(C(=O)CCC3CC3)C[C@@H]2CO)C[C@H](C)O1 | -21% | 1.81
17 | CC(C)CCn1c(C(=O)N2CCCC2)cc2cc(NC(=O)c3ccc(C(C)(C)C)cc3)ccc21 | 8% | -1.49
18 | O=C1CC[C@H](NC(=O)c2ccccc2OCC(=O)Nc2ccccc2F)CN1 | -3% | 0.48
19 | C#CCOCC(O)CN(CC(=O)N1CCc2sccc2C1COc1ccc(F)cc1)C(C)C (stereo not drawn) | -15% | 2.87
20 | CC(C)CCn1c(=O)c2ccccc2n(CC(=O)NC2CCCC2)c1=O | -6% | 0.79
21 | COC(=O)c1cc(NC(=O)c2cc(C3CC3)nc3ccccc23)cc(C(=O)OC)c1 | -9% | 1.01

Row | SMILES | % Inhibition | Z score
22 | CN(C)CCN1C[C@]2(CCCN(C(=O)COc3ccccc3O)C2)CCC1=O | -2% | 0.26
23 | O=C(CCN1Cc2ccccc2OC(c2ccccc2)C1)N1CCC(C(O)c2cccnc2)CC1 (stereo not drawn) | -1% | 0.11
24 | CC(C)[C@H](NCc1nc(C(F)(F)F)cs1)C1(CO)CCC1 | -15% | 1.9
25 | CC(C)NC(=O)c1ccc(Cl)c(NC(=O)[C@]2(C)CCCCN2C(=O)c2ccccc2)c1 | -4% | 0.42
26 | N#CCCN(CC(F)(F)F)C(=O)Cc1ccc(F)cc1Cl | 0% | -0.06
27 | CC(C)NC(=O)N[C@H]1CC(=O)N(C(C)C)C1 | 0% | 0.07
28 | CC1=NO[C@H](C(=O)N2CCC3(CCC(=O)N(Cc4cccnc4)C3)CC2)C1 | -9% | 1.43
29 | COc1cc2c(cc1OC)CN(c1ccc(S(=O)(=O)N3CCCC3)cn1)CC2 | 4% | -0.35
30 | Fc1cc(F)cc(CN2CCC[C@H]2c2ccn[nH]2)c1 | -7% | 0.87
31 | COc1ccc2cc1OCCn1cc(nn1)CO[C@H]1CN(C(=O)c3cnn(C(C)C)c3)C[C@@H]1NC2=O | -4% | 0.81
32 | CC(C)Cc1nc(CNS(=O)(=O)c2cn[nH]c2)no1 | -8% | 1.6
33 | CCCOc1cccc(OCCNCC)c1 | -2% | 0.44
34 | CCOc1ccnc(NCCc2scnc2C)n1 | 3% | -0.66
35 | Clc1ccccc1-c1cc(CN[C@H]2CCOC2)no1 | -8% | 1.19
36 | O=S(=O)(Cc1ccccc1)N1CCN(Cc2cccc(F)c2)C2(CCOCC2)C1 | -3% | 0.56
37 | CCN(CCO)c1ccnc(Cc2ccccc2)n1 | -15% | 2.23
38 | CCN(CC)C(=O)C(C)NC(=O)NCC1CCCO1 (stereo not drawn) | -31% | 3.63
39 | Cn1ncc2cnn(CCOCC(F)(F)F)c2c1=O | 0% | -0.02
40 | O=C1CC[C@H](NC(=O)c2cc(Cc3ccccc3)ccc2O)CN1 | -5% | 0.89
41 | Cc1ccc(-c2cccc(-c3ccn(Cc4ccc5ccccc5n4)n3)c2)nn1 | -4% | 0.58
42 | C[C@@H](O)CNC(=O)C(=O)Nc1ccc(O)cc1 | -1% | 0.15

Row | SMILES | % Inhibition | Z score
43 | Cc1cc(NC(=O)N2CCC(Oc3cccc(C#N)c3)CC2)ccn1 | -17% | 1.94
44 | CS(=O)(=O)N1CC[C@@H](C(=O)N2CCCC2)Oc2ccccc21 | 10% | -1.21
45 | CCCNS(=O)(=O)c1cc(NC(=O)CC(C)C)ccc1Oc1c(C)c(C(=O)O)nn1-c1cccc(F)c1 | -6% | 0.86
46 | CC(=O)N1CCC(N2CCC(Oc3cc(Cl)ccc3C(=O)N3CCCCC3)CC2)CC1 | -17% | 1.46
47 | O=C1C[C@H](NC(=O)c2cc3cc(Cl)sc3[nH]2)CN1 | -5% | 0.63
48 | CC1CN(C(=O)C2Cc3cc(Cl)ccc3O2)CC1N(C)C (stereo not drawn) | -3% | 0.37
49 | CC[C@H](C)Oc1ccccc1-c1nc2c([nH]1)c(C(C)C)nn2C | -16% | 3.28
50 | CNC(=O)COC1CN(C(=O)c2c(F)cc(F)cc2F)C1 | -17% | 1.55
51 | CC[C@@H](CO)NC(=O)Cc1ccc(NC(=O)c2coc(C3CCC3)n2)cc1 | 5% | -0.99
52 | O=C(NCCc1cc(F)cc2c1OCOC2)N1CCC1 | -12% | 1.29
53 | COCCNC(=O)CCN(CCOC)c1nc(-c2ccccc2)nc2ccccc12 | -6% | 1.23
54 | Cc1c(Cl)cccc1S(=O)(=O)N1CC(n2ccnn2)C1 | -7% | 0.81
55 | Cc1cc(N(C)C(=O)c2nccn3ccnc23)ccc1Br | 26% | -3.49
56 | Cc1nnc(CN(CCO)c2cccc(Br)c2)s1 | 0% | -0.03
57 | CC1CCCC(C)N1CCCNC(=O)CCc1cn(C)c2ccccc12 (stereo not drawn) | -16% | 1.57
58 | C=CCc1cc(-c2nccn2C2CCN(C)CC2)ccc1OC | -1% | 0.21
59 | Cc1nn(C(C)C)c(C)c1CNC(=O)c1c(C)n[nH]c1C1CC1 | -25% | 2.65
60 | C[C@H]1Cc2cc(-c3cc(CC(=O)N4CCOCC4)no3)ccc2O1 | -15% | 1.7
61 | CCn1c(=O)c(CCC(=O)NCCCN2CCOCC2)nc2c(C)nn(-c3ccccc3)c21 | -12% | 1.96
62 | CCN(Cc1nccn1C)C(=O)c1ccc(N2CCC[C@H](O)C2)nc1 | 13% | -1.72
63 | CCCCN(C)c1ncc(Cl)c(C(=O)N2c3ccccc3C[C@@H]2C)n1 | -5% | 0.76

Row | SMILES | % Inhibition | Z score
64 | O=C(CCN1CCO[C@H](c2ccc(Cl)cc2)C1)N1CCCC1 | -1% | 0.16
65 | Cc1cc(C)n2cc(Cn3cnc(C)c3C)nc2n1 | -9% | 1
66 | C[C@]1(c2ccccc2Cl)NC(=O)N(CC(=O)Nc2ccccc2C(=O)NCc2ccco2)C1=O | -1% | 0.19
67 | COc1cc(CN2CCC[C@H](Nc3ccc4c(c3)OCCO4)C2)c(Cl)cc1O | 2% | -0.29
68 | Nc1cnc2c(ccc3nn(-c4ccccc4)nc32)n1 | 5% | -0.79
69 | C[C@@H](C(=O)N1CCCCC1)N1CCN(C(=O)c2ccncc2F)CC1 | -7% | 0.65
70 | C#CC[C@H](OC(=O)c1cccn1C)c1ccccn1 | -4% | 0.37
71 | Cc1nn(C)c(C)c1CCNc1ccnc(C(F)(F)F)c1 | -3% | 0.47
72 | CNC(=O)c1noc(CNc2nc(C)nc(C)c2C)n1 | -21% | 1.88
73 | Cc1nc(C)c(C)c(N2CCC(NC(=O)c3cccnc3)CC2)n1 | 1% | -0.1
74 | CCS(=O)(=O)N1CC(=O)N(c2ccc(OC)cc2)[C@](C)(C(=O)NCc2ccccc2OC)C1 | 4% | -0.65
75 | Cc1cnc(C(=O)N2CCC[C@H](c3nnc4ccccn34)C2)o1 | -7% | 0.85
76 | C[C@H](Nc1ccn(CC(F)(F)F)n1)C(=O)N1CCNC1=O | 9% | -0.89
77 | CC(C)CO[C@H]1CCN(C(=O)NCC(C)(C)c2cccs2)C1 | -14% | 1.98
78 | Clc1ccc(CCNc2ncnc3c(-c4ccc(Cl)cc4)noc23)cc1 | -5% | 0.96
79 | CNC(=O)NCC1CCOC1C(C)C (stereo not drawn) | -9% | 0.95
80 | CN(Cc1nccs1)C(=O)C[C@@H](c1cccc(O)c1)c1ccccc1Cl | -4% | 0.74
81 | CCOc1ccccc1NC(=O)CC(=O)N1CCC2(CCN(C)CC2)C1 | -6% | 1.18
82 | Cc1sc(-c2nnc(C(=O)N3CCCCC3)o2)cc1S(=O)(=O)NCc1ccc(N(C)C)cc1 | -12% | 1.7
83 | N=C(N)NCc1ccc(COCc2ccccc2)cc1 | 29% | -5.25
84 | COc1cc(Cl)c(NC(=O)NCCc2nnc(N)o2)cc1C | 7% | -0.76
